What was measured:
[1] = biological target: E. coli MenE (ecMenE) (Escherichia coli, UniProt P37353); experiment: MenE-MenB coupled assay (enzyme inhibition, catalytic parameters)
[2] = physchem

Sequence of E. coli MenE (ecMenE) (P37353 whole entry): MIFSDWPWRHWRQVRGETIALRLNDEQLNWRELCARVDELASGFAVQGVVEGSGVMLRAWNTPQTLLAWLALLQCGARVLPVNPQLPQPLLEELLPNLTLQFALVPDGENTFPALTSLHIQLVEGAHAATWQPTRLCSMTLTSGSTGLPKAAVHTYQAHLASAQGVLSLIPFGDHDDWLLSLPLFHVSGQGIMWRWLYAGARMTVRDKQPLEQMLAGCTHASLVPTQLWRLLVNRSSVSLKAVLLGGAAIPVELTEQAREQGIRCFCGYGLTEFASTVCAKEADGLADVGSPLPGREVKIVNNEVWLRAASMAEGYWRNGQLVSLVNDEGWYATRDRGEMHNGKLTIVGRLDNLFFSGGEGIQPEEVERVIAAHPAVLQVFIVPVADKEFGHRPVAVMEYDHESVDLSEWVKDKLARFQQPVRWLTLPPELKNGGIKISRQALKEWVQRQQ

In the case of `Nc1ncnc2c1ncn2[C@@H]1O[C@H](COS(=O)(=O)NC(=O)CCC(=O)c2cccc(C(=O)O)c2)[C@@H](O)[C@H]1O` [Compound 102, 5′-O—(N-[4″-(3′″-(Carboxyl)phenyl)-4″-oxobutanoyl]sulfamoyl)adenosine], the IC50 [1] is reported as over 100 µM and the pKa [2] is reported as 4.

For `Nc1ncnc2c1ncn2[C@@H]1O[C@H](COS(=O)(=O)NC(=O)CCC(=O)c2ccccc2[N+](=O)[O-])[C@@H](O)[C@H]1O` [Compound 103, 5′-O—(N-[4-(2-Nitrophenyl)-4-oxobutanoyl]sulfamoyl)adenosine], the IC50 [1] was over 100 µM.

For `Nc1ncnc2c1ncn2[C@@H]1O[C@H](COS(=O)(=O)NC(=O)CCC(=O)c2ccccc2-c2cnco2)[C@@H](O)[C@H]1O` [Compound 104, 5′-O—(N-[4-(2-(5-Oxazolyl)phenyl)-4-oxobutanoyl]sulfamoyl)adenosine], the IC50 [1] was over 100 µM.

Work on `Nc1ncnc2c1ncn2[C@@H]1O[C@H](COS(=O)(=O)NC(=O)CCC(=O)c2ccccc2B(O)O)[C@@H](O)[C@H]1O` [Compound 139, 5′-O—(N-[4-(2-Boronophenyl)-4-oxobutanoyl]sulfamoyl)adenosine] yielded an IC50 [1] of over 100 µM and a pKa [2] of over 14.

Compound `Nc1ncnc2c1ncn2[C@@H]1O[C@H](COS(=O)(=O)NC(=O)CCC(O)c2ccccc2C(O)C(F)(F)F)[C@@H](O)[C@H]1O` (some centres unmarked) [Compound 144] has an IC50 [1] of over 100 µM and a pKa [2] of 11.5.

From patent publication US20180273573A1, “INHIBITORS OF MENAQUINONE BIOSYNTHESIS” (Memorial Sloan-Kettering Cancer Center, priority 2015, published 2018)
